Source: the supplement of paper PMC11369174, “Proteome-scale characterisation of motif-based interactome rewiring by disease mutations” (Molecular Systems Biology, 2024)
This is one part of the list. This is a noisy data set.

target: USP7_MATH-TRAF__Q93009_53_206; test: mutation enrichment score (mutant vs wild-type peptide binding to bait); baits are purified protein domains named by gene / domain / UniProt id / residues; peptides come from disordered regions of human proteins; higher = mutation enhances binding relative to wild type; settings: number of wild-type / mutant comparisons summed (bounds the score): 10; paper call: no_effect; wild-type window: …
Sequence (chain, as listed by the source): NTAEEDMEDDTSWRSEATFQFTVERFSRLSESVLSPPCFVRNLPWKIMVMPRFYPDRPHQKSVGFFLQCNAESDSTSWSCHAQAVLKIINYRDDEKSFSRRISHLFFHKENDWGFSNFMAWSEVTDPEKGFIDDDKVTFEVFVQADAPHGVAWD

Binder	mutation enrichment score
PKPIMDRWENQGSPQTSLSATAIPQNLPFPPALHRSSFPDS [P711T P711T]	-1
HNMPKEEEEEEKEGRHLDMVKCVLPSSSHAACSHGLVNSHL [Q705K Q705K]	0.045
PQQYGIQYSASYSQQTGPQQLQQFQGYGQQPTSQAPAPAFS [P285L P285L]	3.1
APMPGDCPAAGTYSYAQVSDNAGPPEPPAGPMHPRLGPEPA [Y259N Y259N]	0
PAFSEDSESHGSSSASSPLSVEGRPSPLEAPNERQRELAVK [A1434V A1434V]	4
YEKKIFEYETQRRRLSPPSSFAASSYSFSDLNSTRGDADMY [S54F S54F]	-2.3
SSSDSGIATGSHSSYSSSLSFYAGSSLDVWRATDELGSLLS [S354F S354F]	-2.2
TVEPLKTLLAEPEGNYPQSSTEPPMHSYLTSVAEEVLSPKE [I3901T I3901T]	1.5
SCSADLKDILSEASTMQLLQRQQQEAVSEGSSSGRAREASG [Q196R Q196R]	-3
PAKQEPKPFDRLQQLLPASQFTQLPCSSSPQETTQSRPMPP [S1431F S1431F]	-2
PAKQEPKPFDRLQQLLPASQYTQLPCSSSPQETTQSRPMPP [S1431Y S1431Y]	-2
PSDPTDRAEVEKDSGHGSTSMDSEGFSIPDTGSHCSSEYAA [V501M V501M]	3
NQQGAHSALSSASTSSHNLQCIFNIGSRGPLPLSSQHRGDA [S85C S85C]	0
KKTSPAREVSSESGTSGQFTTPSSTSVPTIASSSAPVSIWS [P133T P133T]	1.5
KGKKKRGSSLGGTGAAEGPACGFMVVAGGSGSGNCGEVASG [G332C G332C]	-2.2
SPVHMMGTGIGRIEASPQRSHSSSTSSDHGNFMMPPVGPQA [R461H R461H]	4
SDDCSKNTSPTTQPTASGAGGPVMTGAGESTNPENSELKYS [A543G A543G]	1
KPPCFRESASPSPEPWTPGHRACSTSSAAIMATATSRNCDK [G313R G313R]	-1.2
GASKALNVTVDVQSPACTSYHMTPQGHRAPPKINPDNYGMD [Q805H Q805H]	-2.7
QYTHTGLLPQTMLITDTTNLTALASLTPTKQVFTSDTEASS [S531T S531T]	3
SISVISSSSYSYHHPSSAGVNLGASAVAGSSGSTQSGQTKT [D482N D482N]	-0.54
QLGSKSTSHSGQDTEEAGSSVSTLERSLAARRAPRAKLMIP [M1217V M1217V]	-3.9
GALLPREQFAAPLGRPVGTSFSATYPAYVSPDVAQSWTAGP [Y138F Y138F]	-3
NLDLDSIIAEVKAQYEEIANSSRTEAESWYQTKYEELQQTA [R352S R352S]	2
SSQIKKTTDLTTERLVHVDKCPRTASPHFTVSKISVPKTEH [R808C R808C]	-1
KVKKGGGGAGTATESAPGPSVQSVAPIPQPPAESESGSESE [G22V G22V]	3.4
HMKVHESSSQGSQPSPAASSRYESSTPPTIVSPSTDNPTTS [G400R G400R]	1
WEGRYGVQEQVTISGAAGAASSVSASASYAAEAVATGAKEV [A396S A396S]	4
NRPFPGNMSSMTPSSPGMSQEGGPGMGPPMPTVNRKAQEAA [Q913E Q913E]	1.9

same assay, conditions: number of wild-type / mutant comparisons summed (bounds the score): 15; paper call: no_effect; wild-type window: …

Binder	mutation enrichment score
SAMGKSPLSQGDSSAPSLPKEAASTSGPTPAASQALNPQAQ [Q136E Q136E]	1.8
PPLGISLPQVELTGFGEAGTSGQQAQSTVPSAEGTAGYRVQ [P1166S P1166S]	4
KTSPAREVSSESGTSGQFTPASSTSVPTIASSSAPVSIWSP [P134A P134A]	3.6
ESQQESTLWEMQSDSVSSSFKPTMSATTTVVGEQISKVIIT [E3016K E3016K]	-4.7
EPDRKAAVSHWQQQSYLDSGSHSGATTTAPSLSGKGNPEEE [I35S I35S]	4
LGSDFSLVMESSPGATGSFTCEAVELVPAGAPTQAAWRKSH [Y462C Y462C]	-1.9
PQSPAGYMPYSHPSSYTTHPEMQQASVSSPIVAGGLRNIHD [Q200E Q200E]	1.9
SNLVSPTNLSQFNLPGPSMMHSNSIPAQDSSFDLYDDSQLC [R1498H R1498H]	1
CGTCGQPADKASASGSGAQVCGPISSGSSASSVTVTRSYRS [G608C G608C]	2
SGSHLSNSFAEPSRSNGSMVLHSSSPYVVYPSDKPFLNSDL [R30L R30L]	-4
SGSHLSNSFAEPSRSNGSMVPHSSSPYVVYPSDKPFLNSDL [R30P R30P]	-3
NCSPNRQKPVVDHSVRINSVRSTASSSQPLLVHDDV [G961R G961R]	-5.6
NCSPNRQKPVVDHSVRINSVSSTASSSQPLLVHDDV [G961S G961S]	-3.8

same assay, conditions: number of wild-type / mutant comparisons summed (bounds the score): 15; paper call: enhanced; wild-type window: …

Binder	mutation enrichment score
PTDRAEVEKDSGHGSTSVDSQGFSIPDTGSHCSSEYAASSP [E504Q E504Q]	5
PAGSVSSTPLSTPCSSVPSSSSFSPTEQKTHLEDLYWMASN [P71S P71S]	7
CCCACHSKDFTNNDMNQGTSCHFNYPSTPPSERNGTSSTCQ [R106C R106C]	5

same assay, conditions: number of wild-type / mutant comparisons summed (bounds the score): 15; paper call: diminished; wild-type window: …

Binder	mutation enrichment score
SSSQSQGISSSSTSTMPNSSKSSHSSSGTLSSLETVSTQEL [Q51K Q51K]	-6
